Results as given in paper PMC4336329 (PLoS ONE, 2015).
Out of some 310,000 compounds screened, about 14,000 (4.5%) showed an effect of 50% or more. The effect is printed as a negative number. This is one part of the list.

Each compound was assayed against human ether-à-go-go-related gene (hERG) potassium channel (human, UniProt Q12809) (assay: primary screen, population patch clamp on CHO cells stably expressing hERG).
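Further: peak tail current of the secondary pulse compared with the same well before compound.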

Chain of human ether-à-go-go-related gene (hERG) potassium channel (Q12809 whole entry, looked up): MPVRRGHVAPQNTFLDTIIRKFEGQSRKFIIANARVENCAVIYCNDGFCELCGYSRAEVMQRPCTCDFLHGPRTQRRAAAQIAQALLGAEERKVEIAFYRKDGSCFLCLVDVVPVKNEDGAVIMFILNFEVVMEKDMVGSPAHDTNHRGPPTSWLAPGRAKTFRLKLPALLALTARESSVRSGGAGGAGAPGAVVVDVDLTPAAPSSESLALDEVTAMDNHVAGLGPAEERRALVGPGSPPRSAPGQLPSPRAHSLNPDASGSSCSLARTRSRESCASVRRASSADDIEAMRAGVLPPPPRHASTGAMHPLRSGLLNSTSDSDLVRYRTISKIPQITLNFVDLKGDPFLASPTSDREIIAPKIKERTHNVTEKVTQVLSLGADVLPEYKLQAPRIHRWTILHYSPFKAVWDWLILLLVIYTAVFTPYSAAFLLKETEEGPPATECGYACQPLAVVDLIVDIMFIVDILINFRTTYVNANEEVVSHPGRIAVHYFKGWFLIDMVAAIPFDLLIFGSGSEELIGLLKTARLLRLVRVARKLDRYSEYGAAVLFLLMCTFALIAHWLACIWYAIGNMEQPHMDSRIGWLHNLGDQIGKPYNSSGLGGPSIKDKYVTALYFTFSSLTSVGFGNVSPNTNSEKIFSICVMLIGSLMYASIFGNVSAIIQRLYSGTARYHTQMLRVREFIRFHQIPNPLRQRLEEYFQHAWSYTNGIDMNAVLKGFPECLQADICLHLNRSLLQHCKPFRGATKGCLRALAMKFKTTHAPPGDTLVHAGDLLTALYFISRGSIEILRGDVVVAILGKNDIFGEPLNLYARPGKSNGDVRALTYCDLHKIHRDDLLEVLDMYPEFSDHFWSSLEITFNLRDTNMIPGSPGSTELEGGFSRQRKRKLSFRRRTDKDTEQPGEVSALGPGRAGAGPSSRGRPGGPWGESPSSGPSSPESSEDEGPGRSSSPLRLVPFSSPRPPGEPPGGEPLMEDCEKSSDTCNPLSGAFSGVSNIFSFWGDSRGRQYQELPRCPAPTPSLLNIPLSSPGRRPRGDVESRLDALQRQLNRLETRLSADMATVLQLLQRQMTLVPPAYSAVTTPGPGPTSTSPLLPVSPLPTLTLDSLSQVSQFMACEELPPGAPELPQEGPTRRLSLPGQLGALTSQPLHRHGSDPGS

Structure (SMILES) | hERG current change (%, negative = inhibition) at 10uM
Cc1ccc(-n2c(SCC(=O)NCc3cccs3)nnc2-c2ccoc2C)cc1 | -74.8%
COc1ccc(-c2cc3c(=O)n(CC(=O)N4CCCCC4)ncn3n2)cc1 | 17.1%
COc1ccc2c(c1)C(c1ccc([N+](=O)[O-])cc1)=NNC(c1ccco1)=N2 | -60%
CC(C)n1c(CN2CCN(C)CC2)nc2c1c(=O)n(C)c(=O)n2C | 8.55%
O=C(N/C(=C\c1cccnc1)c1nc2ccccc2[nH]1)c1cccc(Br)c1 | -54.9%
Cc1ccc(NC2CCCN(C(=O)CCc3cn[nH]c3)C2)cc1C (centres unmarked) | -8.47%
C[n+]1cccc(/C=N/NC(=O)CC23CC4CC(CC(C4)C2)C3)c1.[I-] | 11.4%
O=c1cc(CSc2nc(NCc3ccccc3)c3ccccc3n2)nc2ccc(Cl)cn12 | -59.3%
CCCCN1C(=O)C(NC(C)=O)c2cc(Br)ccc21 (centres unmarked) | -10.1%
Cc1ccc(CNC(=O)CSc2ccc(-c3ccccn3)nn2)cc1 | -15.7%
CC(=O)c1ccc(N2CCN(C(=O)C3CCN(S(=O)(=O)c4ccc5c(c4)CC(C)N5C(=O)C4CC4)CC3)CC2)cc1 (centres unmarked) | -8.83%
CCN1C(=O)N(CC)C(O)(c2ccccc2)C1(O)c1ccccc1 (centres unmarked) | 2.69%
O=C(NCc1ccccn1)C1COc2ccccc2O1 (centres unmarked) | 5.93%
O=C(CCl)Nc1ccccc1C(=O)NCc1ccccc1 | 9.93%
O=C(Nc1ccc(Br)cc1F)c1sccc1-n1cccc1 | 1.19%
Cc1sc2ncnc(SCC(=O)N3CCCC(C(F)(F)F)C3)c2c1C (centres unmarked) | -4.47%
CC(=O)c1c(C)[nH]c(C(=O)Nc2cc(C)ccc2C)c1C | -3.14%
CCOc1ccccc1C(=O)Nc1nnc(SCC(=O)N2CCOCC2)s1 | 16.7%
CCn1c(COc2ccc3c(c2)CCCC3)nnc1SCC(=O)Nc1ccc(C(=O)OC)cc1 | 5.43%
Cn1ccnc1SCC(=O)c1ccc(F)cc1 | 17%
Cc1ccc(C(=O)COC(=O)C2CCC2)cc1 | 12.9%
Cc1ccc(C(C)C)c(OCC(=O)NC2CCN(C)CC2)c1 | -12.4%

Structure (SMILES) | hERG current change (%, negative = inhibition) at 10uM
O=C(c1ccccc1CCc1ccccc1)N1CCOCC1 | 9.4%
CN(C(=O)c1ccc(NC(=O)Cc2cccc(NC(=O)C3CCCN(C(=O)C4CCCC4)C3)c2)cc1)C1CCCC1 (centres unmarked) | 6.86%
Cc1ccc(-c2csc3nnc(SCC(=O)NCc4ccc5c(c4)OCO5)n23)cc1 | -32.4%
Cc1ccc(C(=O)Nc2cccnc2)cc1S(=O)(=O)N1CCCCC1 | -2.38%
CCOc1cc(C(=O)N(C)CC(=O)Nc2cccc(F)c2)ccc1OCC(=O)N1CCCCC1 | -14.1%
Cc1cccc(Nc2nc(N)c([N+](=O)[O-])c(NCc3ccccc3)n2)c1 | 6.43%
COc1ccc(NC(=O)C2Cc3ccccc3CN2C(=O)c2ccccc2)cn1 (centres unmarked) | 0.984%
CC(OC(=O)COc1ccc(C#N)cc1)C(=O)Nc1ccc(Cl)cn1 (centres unmarked) | -43.4%
COc1ccccc1-c1nc(SCC(=O)NCc2ccco2)c2c(=O)n(C)c(=O)n(C)c2n1 | 5.63%
CC(C)c1ccc(Nc2nc(NCc3ccco3)nc(N3CCOCC3)n2)cc1 | 1.48%
COc1ccc(/C=C2\CCc3ccccc3C2=O)cc1O | -0.423%
CC1CCN(c2oc(Cc3cccc4ccccc34)nc2C#N)CC1 | -5.47%
C/C(=N\NC(=O)c1cc(C)[nH]n1)c1cccs1 | 18.5%
COCCOC(=O)C1=C(N)Oc2c(c(=O)oc3ccccc23)[C@@]12C(=O)Nc1ccccc12 | 11.8%
CC(=O)c1ccc(-c2ccc(C(=O)NC3CC(C)(C)NC(C)(C)C3)o2)cc1 | -122%
CCc1ccc(NC(=O)CN2CCC(C(=O)c3ccc(OC)cc3)CC2)cc1 | -62.8%
CC12COC3(C(=O)Nc4ccc5ccccc5c4)CC1CCC32C (centres unmarked) | 2.36%
CN(C)c1nnnn1-c1ccc(Oc2ccccc2)cc1 | -3.26%
COc1ccc(OC)c2c1cc(C(=O)N[C@H](C(=O)N1CCC[C@H]1C(=O)O)C(C)C)n2C | 18.5%
CCOc1ccc2nc(NC(=O)C(NS(=O)(=O)c3cccs3)C(C)C)sc2c1 (centres unmarked) | 6.36%
CCOC(=O)N1CCC(=NNC(=O)COc2ccc(OC)cc2)CC1 | 8.98%
c1ccc2c(c1)ncn2Cc1nnc2sc(-c3ccc4c(c3)OCO4)nn12 | -2.08%

Structure (SMILES) | hERG current change (%, negative = inhibition) at 10uM
CC1CCN(CCNC(=O)C2CCN(S(=O)(=O)c3cccc4nsnc34)CC2)CC1 | -5.91%
O=C(/C=C/c1ccc(Cl)c([N+](=O)[O-])c1)Nc1ccc(N2CCCC2)c(Cl)c1 | 18.1%
CCn1c(=O)c2sccc2n2c(CCCC(=O)N3CCN(c4ccccn4)CC3)nnc12 | -17.6%
COC(=O)c1ccc(CN(c2ccc(C(=O)O)c(O)c2)S(=O)(=O)c2ccc(Cl)c([N+](=O)[O-])c2)cc1 | 16%
Cc1cc(C)nc(SCC(=O)Nc2cccc(S(=O)(=O)N(C)C)c2)n1 | -4.46%
CCC1CCCCN1CCCNC(=O)COc1cc(=O)n(C)c2ccccc12 (centres unmarked) | -1.99%
C#CCNC(=O)C1=C[C@H](C(C)(C)C)C[C@H](OCc2ccc(CO)cc2)O1 | -18.7%
COc1cc(CN2CCNC(=O)C2CC(=O)N(Cc2nccn2C)C(C)C)cc(OC)c1 (centres unmarked) | -0.0896%
CN(C)S(=O)(=O)c1ccc(NC(=O)N2CCOCC2)cc1 | 15.5%
CO/N=C(/CNC(=O)c1ccc(Cl)cc1Cl)c1ccc(Cl)cc1 | -7.46%
COc1ccc(C)cc1NC(=O)NCc1ccccc1F | -4.83%
CC1CCN(C(=O)CN2C(=O)COc3ccc(Cl)cc32)CC1 | 9.12%
CCN(CC)C(=O)NC1CCCCCCC1 | 14.2%
CC(=O)c1cccc(NC(=O)CC2CCCC2)c1 | 11.2%
CCn1c(=O)c2sccc2n(Cc2cc(C(=O)OC)ccc2OC)c1=O | -9.52%
CS(=O)(=O)Nc1ccc(S(=O)(=O)N2CCCCCC2)cc1 | -65.4%
Cc1ccc(NC(=O)CN(C)C(=O)c2ccc(Cl)c([N+](=O)[O-])c2)cc1 | -52.1%
CN(C)C(=O)COC(=O)c1ccccc1Nc1ccc(SC(F)F)cc1 | -44.3%
O=C(NC(Cc1ccccc1)C(=O)O)c1cccnc1Cl (centres unmarked) | 10.9%
CCNC(=O)C1Cc2ccccc2CN1S(=O)(=O)c1ccc(F)cc1 (centres unmarked) | -3.64%
O=C(CCNS(=O)(=O)c1ccccc1)N1CCCCCCC1 | 2.14%
Cc1cc(C)c(NC(=O)Cn2nnc(C(=O)NCc3ccc4c(c3)OCO4)c2N)c(C)c1 | 8.04%

Structure (SMILES) | hERG current change (%, negative = inhibition) at 10uM
O=C(NC(=O)c1csnn1)Nc1ccccc1Cl | 9.03%
CCc1c(C)nc2ncnn2c1N1CCCC(C(=O)NCCc2ccc(OC)cc2)C1 (centres unmarked) | -19.6%
Cc1cccc(N(C(=O)c2ccco2)C(C(=O)NC2CCCC2)c2cccnc2)c1C (centres unmarked) | -4.13%
CCN(CC)CCNC(=O)Cn1ncc2ccccc2c1=O | 7.05%
Cc1ccc(CNC(=O)C(=O)Nc2nccs2)cc1 | 15%
CC(C)CNC(=O)COC(=O)c1ccc(Cl)c(S(=O)(=O)N2CCc3ccccc32)c1 | 9.02%
N#Cc1ccc(NC(=O)CN2C(=O)NC3(CCCC3)C2=O)cc1Cl | 18.5%
CCc1ccccc1N(CC(=O)NCc1ccccc1)C(=O)CCC(=O)Nc1ccccn1 | 7.38%
CC1(C)CN(c2cccc(-c3ccnc4ncnn34)c2)C1=O | 7.66%
Cc1nc2sc3c(c2c(=N)n1N)CCCC3 | 4.73%
O=C(Nn1cnnc1)c1cc2c(s1)CCCCC2 | -0.239%
CC(C)NC(=O)NC(=O)COC(=O)c1ccc(F)cc1F | 1.75%
CC(C)Oc1ccc(S(=O)(=O)N2CCOCC2)cc1NC(=O)C1CCC1 | -0.177%
CC/C=C/C(=O)N1CC2(CC(c3cccc(NC(=O)COc4ccc(Cl)cc4)c3)=NO2)C[C@H]1C(N)=O (some centres unmarked) | -64.7%
Cc1ccc2cc(C#N)c(SCC(=O)N3CCCc4ccccc43)nc2c1 | 10.8%
Cc1ccc(N=Nc2c(C)[nH]n(C(N)=S)c2=O)cc1C | 27.4%
CCC(=O)Nc1sc2c(c1C#N)CC(C)(C)NC2(C)C | -3.25%
CC(C)Cn1cnc2c1c(=O)n(CC(=O)Nc1ccc3c(c1)OCO3)c(=O)n2Cc1ccccc1 | -2.04%
Cc1ccc2c(c1)-c1cc(C)nn1C(c1ccc3c(c1)OCO3)N2 (centres unmarked) | -0.444%
COc1ccc(C(=O)N/C(=C\c2cn(C)c3ccccc23)C(=O)NCCN2CCOCC2)cc1OC | 21.1%
